In the supplement of paper PMC3334620:
The full ranking holds about 33,000 sequences; the median of “E-score (-0.5 to 0.5)” is about -0.054, and the highest 2% start at about 0.39. Some of the results follow.

Target: Ylr278c (UniProt Q05854)
Experiment: PBM E-score (8-mer binding enrichment) (E-score (-0.5 to 0.5)); higher = stronger / more preferred TF binding; most listed sequences are background and not binding sites
Conditions: protein concentration: 200 nM; construct: GST-DNA-binding domain
Summary of the method: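 E-scores (a modified Wilcoxon-Mann-Whitney statistic) were assigned by the Universal PBM Analysis Suite to every ungapped eight-base word pooled with its reverse complement. The input came from universal all-10-mer Agilent arrays made double-stranded by primer extension and probed with GST-tagged yeast transcription factors at about 100-200 nM. Fluorescent anti-GST detected bound protein, and masliner normalised the scans.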

Sequence | PBM E-score
GTAGCGTA | -0.0749
ATACTTTG | -0.136
GGTCGTGA | -0.19
GAGAACCC | -0.0282
TCAATGGA | -0.123
CTCTTATA | 0.0631
AGATGCAG | -0.262
AATTATCT | 0.0914
CAGTGCAC | -0.0223
ACCTGACC | -0.149
AAAAACAC | -0.0909
GACCCCAC | 0.127
AAGGCTGA | -0.152
AAATTGTG | -0.26
AAGAACAC | 0.0131
CTGGTTTC | 0.0107
ACCGAACT | 0.0468
AGCACAAC | 0.175
CAGCGCAG | 0.00799
CACGCTGA | -0.189
CAAGACCC | -0.109
AAGACTCG | -0.0276
CCGCGGCG | 0.364
CCAGTGAA | -0.0717
GACGCCTA | -0.172

Sequence | PBM E-score
TCCCCAAA | -0.0318
CGATTGTC | 0.12
CAAAAGCC | 0.18
CTGATCGA | -0.198
AATACAGC | -0.0142
ACTTCATC | -0.103
GAAGGTAC | -0.235
AGGTCGTG | -0.281
AGGCCACA | -0.282
AGGTAATA | 0.0169
GTGGCCCA | -0.196
ATCCCTCG | 0.208
ATTCTTCG | -0.00036
GAGGCCAC | -0.193
CGTGATAA | -0.0572
AGTTCACC | 0.126
GTTTGGTA | 0.0237
CCTCACAG | -0.134
AAAGCCTT | -0.162
CTGCATAA | -0.0728
CAATGATA | -0.0669
GATGTCGC | -0.0629
GATTGGGA | -0.106
CTCATACC | -0.0662
CGCTAGTA | 0.17

Sequence | PBM E-score
CTGGTGGC | -0.164
AATCTCAG | -0.103
GCTTCACA | -0.115
ACTTCTTG | -0.065
ATTATGAA | -0.00699
AGTCGCAT | -0.199
GCTCAAAC | 0.129
GCGAGCAC | -0.14
GTGTTCGA | -0.0363
CGTTTTCA | 0.0373
CCGCCCCG | 0.42
ATAAAATA | -0.0515
AAACGTCC | -0.0644
AAGTAGAT | -0.0116
ACGATGCG | -0.123
CGCTCACG | 0.207
AACGTACG | -0.145
ACTGCCTG | -0.243
ACGTGAAT | -0.147
CGTCTACC | 0.0196
GCGGCTAC | 0.135
AGGTGGAC | -0.19
GTTCCGCA | 0.289
GAACGGTA | -0.0663
CCAGTACA | -0.227

Sequence | PBM E-score
AGGGGTTC | 0.0104
AATTGGCA | -0.161
ATCTTGAC | -0.292
GGTCCAGA | -0.112
CGTGAATC | -0.0386
CCGCGCAC | 0.22
AATCAAAA | 0.109
CCCGCCGG | 0.384
CAATTAAC | -0.0354
ACGTAGTC | -0.164
GAGGCAGA | -0.207
ACGCAGCC | -0.0587
AAATTAGT | -0.076
AAAAGCCG | 0.388
CCAGTGCC | -0.167
ATTTTGCA | -0.0861
GACCGGCC | 0.291
AGCCGTAT | -0.0908
CGGGAAAA | 0.259
CCTATAAA | -0.0348
GCCGGCGA | 0.385
GACAACAA | -0.164
AGAGATAT | -0.256
GAGTGCAC | 0.0372
AATTTTCC | 0.358

Sequence | PBM E-score
AGTGAAGA | -0.14
AGCGGAAG | 0.305
AACATTTA | -0.0141
AGCCATGA | -0.103
GGGAGCCC | -0.059
CTGTTGTA | -0.0433
AAAGAACA | -0.126
TAACTTCA | -0.198
CAGATTAG | -0.223
AAGAGGCC | 0.137
AGCGCCCT | -0.00488
GTTCGTGA | -0.177
CAAAGTGG | -0.285
AGTACGTA | -0.124
GGTAGACC | -0.0527
GTGACCGA | 0.101
GACCGACC | 0.0515
ACGAAGCG | -0.162
CAGGTCCA | -0.226
CTTGCGCC | -0.105
CACCACTG | -0.335
ATCGACGA | 0.0209
CCGACTAC | 0.295
CTAGTGAA | -0.112
CCAGGGAC | -0.188

Sequence | PBM E-score
ATGTCTTC | -0.153
ACCCAAAC | 0.0213
ATCCCCAC | -0.00192
ATTCTTTG | -0.159
ATTAAGGA | -0.0299
AGCTGCGA | -0.0578
GCCATTCA | 0.12
GCTGATGA | -0.217
GACCGGAC | 0.383
CTCTAATC | -0.0678
CACGAGTC | -0.202
ACCTTCGC | 0.00825
CAGCGGAG | 0.408
CAACAGCA | -0.0177
CAAACGAG | -0.0823
ATATTGAA | -0.00985
AATCATAG | -0.04
AACATTCG | 0.0713
AATTACCG | 0.275
GTTCAGAA | -0.175
AACAAGAA | -0.0843
AGTGGATG | -0.158
ACAGACCC | -0.052
TACCTGAA | -0.23
AAAGCCCG | 0.338

Sequence | PBM E-score
AACTATCA | -0.111
CTGCGCGC | 0.138
GTATTACA | -0.0417
CGGTGCCA | 0.0473
AAAGGTGG | -0.126
ACGGCCTA | 0.106
AGATGGCA | -0.00669
ACCTGAGC | -0.197
ACGATTAA | -0.0627
ACTCAGAT | -0.182
TCCGCGCA | 0.374
AGCGGTCA | 0.0962
TCTATTCA | -0.218
GGCTGACA | 0.0842
CATTCGGC | 0.312
ACGAGAGG | -0.16
TACTTCTA | -0.212
AATACAGA | -0.158
CGTACATA | -0.115
ACCCGACT | 0.105
GCGAATCC | 0.111
AAGCCGAG | 0.226
GTTTTGTA | -0.0964
GACGCGAC | -0.133
CTCCCTTC | -0.275

Sequence | PBM E-score
CTCTTGAC | -0.177
AACGGGTC | -0.0645
AGCAAGAT | -0.0184
CTAATCCA | -0.135
GAACTATC | -0.121
CAGAACCG | -0.00913
TAGCCCAA | -0.13
CAACAAAC | 0.00596
GTGCACAC | -0.231
ACACTCTG | -0.112
CCGCCACC | 0.198
ACTCTGCG | 0.00898
ATAGCGCG | 0.0396
GCTTCTCC | 0.205
CTGGTACC | -0.0388
TTCGCCAA | -0.216
ACAGTGAC | -0.11
CATCGGCG | 0.304
CGTCAATA | -0.107
ATGCGGAC | 0.374
ATTTGGCG | -0.0905
AGACTCGA | -0.128
GGTACCAC | -0.0762
GCATAAGA | -0.0502
CTCTGGAC | -0.0996

Sequence | PBM E-score
CTCGGCTA | 0.0928
ATAGTACC | -0.0594
ATTGCCAG | 0.0457
AATACCAC | -0.0734
ACTGTCCT | -0.131
AATTTCGG | 0.319
AAATTTTG | -0.107
AGCACTGC | -0.166
AAGTCAGC | -0.0474
TAACTCTA | -0.177
GCGCTAGA | -0.0362
CAGAACAC | 0.0343
TGGCTTAA | -0.11
AAGGTTCA | -0.0585
TCGCTAGA | -0.208
AAGAGTAT | -0.263
AGCACAGC | 0.0001
AGGCCGAC | 0.324
TTGGCCAA | -0.201
CAAATCCC | 0.174
CTGTCCGA | 0.335
CACAAGAC | -0.172
AACAGGCT | -0.245
CATATCCA | -0.214
ATGGATCA | -0.124

Sequence | PBM E-score
AAGCCTGG | -0.0749
CCTGTGGC | -0.166
AGTTTTAA | -0.0278
AGGCTACG | -0.25
ACCGAACG | 0.201
GCGCGAAA | 0.109
GTAAAAAC | -0.0871
GCTCCCTA | -0.252
CCTAAACG | -0.0312
GCTCGGAA | 0.338
AGCTGTGG | -0.238
GACTTCGC | 0.222
CTGTTTGA | -0.216
CGCTGTTC | -0.109
AATGTAGG | -0.0899
CCCTAGAC | -0.19
AGTCCCTG | -0.179
AGCGGGTG | 0.114
GATTACAC | -0.0511
GCAAGGGA | -0.22
ACCTTCAC | -0.195
ATATTATC | -0.0613
AGTCGCTA | -0.312
CATAGCCA | -0.115
CTAGGCCC | -0.00349

Sequence | PBM E-score
GTGGGACA | -0.069
CAAGTCCC | -0.108
GACCGTAC | -0.216
CACTGAAA | 0.0396
ATGTCCAC | 0.0449
ATCCTATA | -0.0589
CGATAATC | 0.0657
ACGTCACC | -0.0921
ACACCAGG | -0.186
AAATCAAC | -0.111
CTCGCTCC | 0.0527
AGGTATTC | -0.0359
AATACGCA | -0.0994
ACGCGGGC | 0.186
AGCGAGCA | -0.192
GTCGCCTA | -0.0998
CCACGGAC | 0.272
CGAGCCAA | -0.0654
CAGAGCGG | 0.125
CCTGCCTA | -0.101
AGTTGTTG | -0.0499
ATATACTA | 0.0964
CCCGTGTA | 0.122
AAGAAACG | -0.00449
TCAGTCGA | -0.204

Sequence | PBM E-score
CCTGAGAA | -0.159
GGCTACCC | -0.161
GGATCCGA | 0.35
GACATGTC | -0.0847
ATTATCTA | -0.1
AAAAAACA | 0.0735
ACCCGGAC | 0.396
GTTATGCA | -0.167
GAAGGCGA | 0.00481
ATCATACC | 0.0189
CGTAACTA | -0.164
AAAAGAGC | -0.201
AGTATATC | -0.0628
ATGTAGGA | -0.0983
ATCGACAT | -0.0486
CGGTTTTC | 0.211
CGTTCGGC | 0.235
GCTGCACC | 0.00051
CGCATTAC | 0.142
CTACCATC | -0.163
AGAGCTTA | -0.0628
ATCTCATA | -0.168
CCCGGAAC | 0.4
AACTGTAA | -0.0107
GAGGCCGC | 0.143

Sequence | PBM E-score
ACCTCATC | -0.0463
CGGGCTTA | 0.246
CGGACCCG | 0.394
CGTCGGCC | 0.266
ATGACAAG | 0.00284
GAGCCTTA | -0.0189
GACTTGGC | -0.214
GTACGTAC | -0.146
GTCATTCA | -0.0381
GCAAAACA | -0.0358
AATACTAT | -0.153
CGCGGGGA | 0.364
ACCCGTAA | -0.017
CCCTCGAC | -0.0105
AAGATATA | 0.0151
CTGCAACA | 0.0318
CCTGTGTA | -0.182
ATCTATCA | -0.0379
AGAGATAC | 0.00525
CAGGAGAG | -0.205
AGGGTGTC | -0.065
CCAAGAGG | -0.208
AGAGCAAA | -0.204
CAAGACCA | -0.212
ATAGAATA | -0.0964

Sequence | PBM E-score
AAGGAGGC | -0.284
GTCTGCTA | -0.184
CCCCCTCG | -0.272
CATGACGC | -0.0913
ACTTCTGC | -0.0381
ATTATGGG | 0.0241
CTCAGAAA | -0.257
CTTACCCC | -0.0218
ACTTGTTG | -0.337
AGTACGCA | -0.201
AAGAGACG | 0.0605
AAGGAGTG | -0.179
ATGTACCG | 0.112
ACCAATAT | -0.0997
CAGACTAA | -0.196
CGGCTCTA | 0.19
ACCTCGCA | -0.0606
AACAGCAA | -0.0673
CGCCAAGC | -0.0363
